# Hit rate of the full screen: of about 310,000 compounds, about 11,000 (3.5%) were called active. This list was built around the results that the source calls inconclusive (neither active nor inactive); the mix of calls is not that of the screen. Calls come from the whole dose curve; as a rule, active = well fitted inhibition curve with a large enough effect; inconclusive = small, poorly fitted or top-dose-only effect, or effect the other way; inactive = flat fitted curve, though single readings scatter. Potencies of inconclusive entries are left out as doubtful fits.
# Assay: VP16 counterscreen qHTS for inhibitors of ROR gamma transcriptional activity;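 note: Gal4-VP16 expression switched on by copper sulfate through the metallothionein promoter; nearly all actives have a fitted effect of over 50% in size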
# Settings: Drosophila S2 Gal4-VP16 UAS-luciferase, luminescence, 20 h; activity, negative = inhibition: at 53.6 µM (top of the series)
# % is set by controls: 0 for no effect and ±100 for the full control effect; potency is the fitted concentration of half-maximal effect; tags give direction and shape of the fitted curve.
SMILES,Potency,"activity, negative = inhibition"
Cc1ccc(Nc2nc(-c3cccs3)cs2)nc1,active: 12.6 µM,–
Cc1c(C(=O)N(Cc2ccccc2Cl)C2CCS(=O)(=O)C2)oc2ccccc12 (centres undefined),–,inactive: -8.07%
COc1ccccc1-c1ccc2ncnc(N3CCOCC3)c2c1,"inconclusive [inhibitor, single point]",–
O=C(NC(=S)Nc1ccccc1Br)c1ccco1,"inconclusive [inhibitor, single point]",–
Cc1ccc2nc3sc(C(=O)Nc4c(C)[nH]c(=O)[nH]c4=O)c(N)c3cc2c1,"inconclusive [activator, single point]",–
Cc1cc(NC(=O)c2ccc3c(c2)OCO3)ccc1NC(=O)c1ccco1,–,inactive: -6.06%
COc1ccc(CNC(=O)C(C)OC(=O)C23CC4CC(CC(O)(C4)C2)C3)cc1 (centres undefined),"inconclusive [activator, single point]",–
COCCCN(C(=S)Nc1c(C)cc(C)cc1C)C(C)c1ccccn1 (centres undefined),"inconclusive [inhibitor, partial curve]",–
CCC(C)/C(C)=N/NC(=O)c1ccc(COc2ccc(Cl)c(C)c2)cc1 (centres undefined),"inconclusive [inhibitor, single point]",–
Cc1ccc(/C=C2\CC(C)CC3=C2NC(=S)NC3c2ccc(C)cc2)cc1 (centres undefined),"inconclusive [inhibitor, single point]",–
COc1ccc(/C=N/Nc2cc(C)nc3ccccc23)cc1,"inconclusive [inhibitor, single point]",–
CCCn1c(SCC(=O)c2cc(C)n(-c3ccc4c(c3)OCO4)c2C)n[nH]c1=O,"inconclusive [inhibitor, single point]",–
CN(C)c1ccc(C(=O)/C=C/c2cccnc2)cc1,"inconclusive [inhibitor, single point]",–
CC1(C)Cc2c(cnn2-c2ccc(F)cc2)C(NC(=O)CCc2ccncc2)C1 (centres undefined),"inconclusive [inhibitor, single point]",–
CCCN(Cc1ccccc1)C(=S)NC(=O)c1ccccc1[N+](=O)[O-],active: 1 µM,–
O=C(O)c1ccc(N/N=C/C=C/c2ccc([N+](=O)[O-])o2)cc1,"inconclusive [inhibitor, single point]",–
C/C(=N/NC(=O)OC(C)(C)C)c1ccco1,–,inactive: -6.39%
O=C(NC1CCCC1)C1CC(c2ccc(F)cc2)=NO1 (centres undefined),"inconclusive [inhibitor, full curve, poor fit]",–
COc1ccc(-n2c(C)cc(C(=O)COc3ccc(C)nc3[N+](=O)[O-])c2C)cc1,"inconclusive [inhibitor, single point]",–
O=C(Nc1ccc(Cl)c(Cl)c1)Nc1nc(-c2ccccc2)cs1,"inconclusive [inhibitor, single point]",–
Cc1ccc(-n2cc(C(=O)c3ccccc3O)cn2)cc1,"inconclusive [inhibitor, single point]",–
CCOC(=O)c1cc([N+](=O)[O-])sc1NC(=O)CC,"inconclusive [activator, single point]",–
CSc1nc2ccc(NC(=O)c3nn(C(C)C)c(=O)c4ccccc34)cc2s1,"inconclusive [inhibitor, single point]",–

SMILES,Potency,"activity, negative = inhibition"
Cc1cccc(C)c1NC(=S)NCCCN1CCCC1=O,"inconclusive [inhibitor, single point]",–
O=C(NC(=S)Nc1cccc2cc(O)ccc12)c1ccccc1Br,"inconclusive [inhibitor, partial curve]",–
CCN=c1scc(-c2ccc3c(c2)NC(=O)CO3)n1N=C1CCCC1,"inconclusive [inhibitor, single point]",–
COc1ccc2c(=O)c(C(=O)NCCc3ccccc3)c[nH]c2c1,"inconclusive [activator, full curve, poor fit]",–
C=CCc1ccccc1OCC(=O)NNC(=S)NCc1ccccc1,active: 10 µM,–
CCN(CC)C(=O)C[n+]1cccc(C(N)=O)c1,"inconclusive [activator, single point]",–
CC(C)(C)OC(=O)CNC(=O)c1[nH]cnc1C(=O)N[C@@H](CCCCNC(=O)OC(C)(C)C)C(=O)OC(C)(C)C,"inconclusive [inhibitor, single point]",–
COc1ccc(OC)c(-c2csc(NC(=O)c3ccc(F)cc3)n2)c1,active: 10 µM,–
CCNC(=S)NNC(=O)CSc1nc2ccccc2[nH]1,active: 12.6 µM,–
CC(C)(C)c1ccc(OCCNC(=O)Cc2ccc(F)cc2)cc1,"inconclusive [inhibitor, single point]",–
COc1cc(NC(=O)CN2C(=O)CN(C)C2=O)c(C)cc1[N+](=O)[O-],–,inactive: 7.32%
COc1ccc2[nH]c3c(C)c4cc[n+](C)cc4c(C)c3c2c1,"inconclusive [inhibitor, partial curve]",–
Cc1ccc(NC(=O)CSc2nc3ccccc3c(=O)n2CCCN2CCCCC2)cc1C,"inconclusive [inhibitor, single point]",–
COC(=O)c1ccc(Cn2nc(C)c([N+](=O)[O-])c2C)o1,"inconclusive [inhibitor, single point]",–
O=C1CS/C(=N/N=C\c2ccn[nH]2)N1,"inconclusive [inhibitor, single point]",–
O=C(N/C(=C/c1cccnc1)C(=O)N1CCCCCC1)c1cccc(Br)c1,"inconclusive [inhibitor, single point]",–
FC(F)(F)c1ccc2c(c1)NCC1CCCN21 (centres undefined),–,inactive: -2.19%
COc1ccccc1/C=C1\CCCC2=C1Nc1nnnn1C2c1ccccc1OC (centres undefined),active: 14.1 µM,–
Cc1cccc(NC(=O)CCc2nnc3ccc(N4CCC(C)CC4)nn23)n1,–,inactive: 1.66%
O=C(O)CCSc1ccc([N+](=O)[O-])cc1[N+](=O)[O-],–,inactive: 3.53% [at 10 µM]
O=C(COc1ccccc1)Nc1nnc(-c2ccc3c(c2)CCCC3)o1,active: 3.55 µM,–
FC(F)(F)c1cccc(NC(=S)NCc2ccc(Cl)cc2)c1,"inconclusive [inhibitor, single point]",–
COc1ccc(C(C)NC(=S)NCc2ccc(F)cc2)cc1OC (centres undefined),"inconclusive [inhibitor, single point]",–

SMILES,Potency,"activity, negative = inhibition"
CCOc1ccc(N2C(=O)CC(Sc3ncccn3)C2=O)cc1 (centres undefined),"inconclusive [inhibitor, single point]",–
Cc1ccc2[nH]c3c(=S)nc[nH]c3c2c1,"inconclusive [inhibitor, single point]",–
Cc1ccc(C(=O)Nc2ncnc3sc4c(c23)CCCCC4)cc1,"inconclusive [inhibitor, partial curve, poor fit]",–
S=C(N/N=C/c1ccc(Cl)c(Cl)c1)Nc1ccccc1Cl,active: 0.794 µM,–
Cc1cc(C)c(C#N)c(SCCS(=O)(=O)Cc2ccccc2)n1,–,inactive: 1.93%
COc1ccc(NS(=O)(=O)c2ccc(OC)c(N(C)S(=O)(=O)c3ccc(Cl)cc3)c2)cc1,active: 11.2 µM,–
CS(=O)(=O)N1CCC2(CCN(C(=O)Nc3cccc(C#N)c3)CC2)CC1,"inconclusive [inhibitor, full curve]",–
C/C(=N\NC(=O)CCn1nc(C)cc1C)C(C)(C)C,"inconclusive [inhibitor, single point]",–
CCC(Sc1nc2ccsc2c(=O)n1Cc1ccc(C(=O)O)cc1)C(=O)Nc1ccc(C)c(Cl)c1 (centres undefined),–,inactive: -4.32%
Cc1ccc(C(C#N)c2ccc(C(=O)c3ccc(F)cc3)cc2)cc1 (centres undefined),"inconclusive [inhibitor, single point]",–
[O-][n+]1onc2c1CCc1c-2nn(-c2ccccc2Cl)[n+]1[O-],active: 3.16 µM,–
Cc1cc(N/N=C/c2ccccc2)nc(NCc2ccccc2)n1,"inconclusive [activator, single point]",–
CCOC(=O)C(Cc1ccc(N)cc1)N1C(=O)c2ccccc2C1=O (centres undefined),"inconclusive [inhibitor, single point]",–
COc1ccc2nc(NC(=O)c3ccc(-c4cccc([N+](=O)[O-])c4)o3)sc2c1,"inconclusive [inhibitor, partial curve]",–
N#CCC(=O)Nc1ccc(C(=O)OCC(=O)Nc2ccccc2-c2ccccc2)cc1,"inconclusive [inhibitor, single point]",–
O=C(CN1CCN(c2ccc(O)cc2)CC1)Nc1cc([N+](=O)[O-])ccc1Cl,"inconclusive [activator, single point]",–
Cc1nc(NC(=O)CSc2nc3cccnc3n2Cc2ccccc2)sc1C,"inconclusive [inhibitor, single point]",–
COc1ccc(NC(=O)c2cc(C)nc3ccccc23)cc1S(=O)(=O)Nc1ccccc1Cl,"inconclusive [activator, single point]",–
COC(=O)[C@@H](NC(=O)Nc1ccc(OC(F)(F)F)cc1)C(C)C,"inconclusive [inhibitor, single point]",–
O=[N+]([O-])c1cc(CN2CCCC2)c2cccnc2c1O,"inconclusive [inhibitor, single point]",–
COc1ccccc1NC(=S)NC1CCCCCC1,active: 3.98 µM,–
COC(=O)c1ccc(COc2ccc(CNCc3ccc(Cl)cc3)cc2)cc1,"inconclusive [inhibitor, partial curve, poor fit]",–
COc1ccc(NC(=O)CC2SC(=O)NC2=O)cc1 (centres undefined),active: 12.6 µM,–

# Reference: PubChem BioAssay AID2546 (National Center for Advancing Translational Sciences (NCATS), 2010)
